The source gives no read counts; variants with many changes may rest on few reads.
B1: OR4K15 (parent)
chain: GUUAACGGUCAUAGGCCAUGGAAACUAGGAGCACCAUUUCGCUGCCAGUGAAGAAAUGAACAAAGAAAAUCUGGGCCAGGCAGGCAUCAAAAGAAAUAGUCUUGCGCUCAACCAGAAAGUCUGUAAUCAUUUUAAGGGUA

Variants of: B1
Experiment: self-cleavage, relative activity (ratio to wild type); higher = more cleavage; in vitro, sequencing; the parent is a self-cleaving ribozyme

With A62C A67G U102C A110G U139G as the variant, how does the self-cleavage read?
The self-cleavage was 0.13.

Which self-cleavage does the source give for A24G G115A A135G here?
Its self-cleavage is 0.22.

With A30U U87C U122A as the variant, how does the self-cleavage read?
The self-cleavage was 1.08.

Which self-cleavage does the source give for G48U A89G C109A U120A here?
The self-cleavage was 0.1.

For A4G U9A A11G A24G A56G A114G, which self-cleavage is on record?
The self-cleavage was 0.58.

With G41U A86G A96G as the variant, how does the self-cleavage read?
Its self-cleavage is 2.45.

Which self-cleavage does the source give for A4G U38C A56G A67G A94G A117G here?
The self-cleavage was 1.46.

For A33G U72A A82G, which self-cleavage is on record?
Its self-cleavage is 0.16.

With C34A A52G A64G as the variant, how does the self-cleavage read?
The self-cleavage was 0.7.

With U38C U43A U70C A92G as the variant, how does the self-cleavage read?
Its self-cleavage is 0.58.

With G58A A69G A89C as the variant, how does the self-cleavage read?
Its self-cleavage is 0.83.

With C77A A94G A114G U120A as the variant, how does the self-cleavage read?
The self-cleavage was 0.19.

Which self-cleavage does the source give for A91G A110G A140G here?
Its self-cleavage is 0.14.

Which self-cleavage does the source give for U37C U49A A63U here?
Its self-cleavage is 1.17.

With A18U A51U A114C as the variant, how does the self-cleavage read?
Its self-cleavage is 0.04.

Which self-cleavage does the source give for U2C A18U A23G C88U G138A here?
The self-cleavage was 1.51.

For A63G A69U A114C, which self-cleavage is on record?
The self-cleavage was 0.09.

For A23U U49C A59U C105U, which self-cleavage is on record?
The self-cleavage was 0.08.

Which self-cleavage does the source give for U26C G31U A66G A89G A90G A95G here?
Its self-cleavage is 2.08.

Which self-cleavage does the source give for U19C A22G A52G here?
The self-cleavage was 1.01.

Which self-cleavage does the source give for C34U U72A U87A A110G here?
The self-cleavage was 0.

Which self-cleavage does the source give for A33C U49A A62G A92G here?
The self-cleavage was 1.01.

Which self-cleavage does the source give for A11G G21A U57A A68G A116G here?
Its self-cleavage is 0.48.

Which self-cleavage does the source give for C6U A23G A52G here?
The self-cleavage was 0.41.

With C32U U38C A95G G106A U127A U139C as the variant, how does the self-cleavage read?
Its self-cleavage is 0.01.

With U9C A52G A69G A111G as the variant, how does the self-cleavage read?
The self-cleavage was 0.04.

With A5U U43A U87C as the variant, how does the self-cleavage read?
The self-cleavage was 1.45.

For A5G A36G G83A A89U, which self-cleavage is on record?
The self-cleavage was 1.05.

With G14C A91G A140G as the variant, how does the self-cleavage read?
Its self-cleavage is 0.74.

With C35U U57A U103C A110G as the variant, how does the self-cleavage read?
Its self-cleavage is 0.05.

For A63G U70C A98U, which self-cleavage is on record?
Its self-cleavage is 1.37.

With G48A A95G A134G as the variant, how does the self-cleavage read?
Its self-cleavage is 1.46.

With U9C A66G U72A U139C as the variant, how does the self-cleavage read?
The self-cleavage was 0.31.

Which self-cleavage does the source give for A5G A23G A95G U102G here?
Its self-cleavage is 1.22.

For C10U A23G U70C U108A, which self-cleavage is on record?
The self-cleavage was 0.06.

With U120A U131C U132C as the variant, how does the self-cleavage read?
Its self-cleavage is 1.19.

With U38C A63G A110G U122C as the variant, how does the self-cleavage read?
The self-cleavage was 0.2.

Which self-cleavage does the source give for A47U A60G U122C here?
The self-cleavage was 0.49.

With U37G A59G A129G as the variant, how does the self-cleavage read?
Its self-cleavage is 1.32.

With A11G U19C A68U as the variant, how does the self-cleavage read?
Its self-cleavage is 1.01.

Which self-cleavage does the source give for C10U U87A A129G here?
Its self-cleavage is 0.27.

With U2C U26C A52G A96G as the variant, how does the self-cleavage read?
The self-cleavage was 1.01.

Which self-cleavage does the source give for C61U A116G U120C U122C here?
Its self-cleavage is 0.27.

With U9A U26C A96G A126G U131C as the variant, how does the self-cleavage read?
The self-cleavage was 1.61.

For U26C A54G G65A, which self-cleavage is on record?
Its self-cleavage is 1.78.

Which self-cleavage does the source give for U19C A24G U43A A69G U132C G136A here?
The self-cleavage was 1.72.

With A23G U43C U70C as the variant, how does the self-cleavage read?
The self-cleavage was 0.73.

Which self-cleavage does the source give for A36G U72A A92G U100C U124C U132A here?
Its self-cleavage is 0.03.

Which self-cleavage does the source give for A23G A52G U127C here?
The self-cleavage was 1.26.

For U43C A51U A67U, which self-cleavage is on record?
Its self-cleavage is 1.75.

Which self-cleavage does the source give for A22G A47G A52G A56G here?
Its self-cleavage is 1.07.

Which self-cleavage does the source give for U3C U43A A64G G80A A90U here?
Its self-cleavage is 0.27.

With U39C A47G A95G U131C as the variant, how does the self-cleavage read?
Its self-cleavage is 1.79.

For G41A U43C A51G, which self-cleavage is on record?
Its self-cleavage is 1.58.

Which self-cleavage does the source give for U19C A22G A95G here?
Its self-cleavage is 1.4.

For A47G A66G G99A, which self-cleavage is on record?
The self-cleavage was 0.48.

With A52G U100C U139A as the variant, how does the self-cleavage read?
The self-cleavage was 2.21.

With A110G A118G U131C as the variant, how does the self-cleavage read?
Its self-cleavage is 0.03.

For G44A A59G A96G U102C A110G A117C A134G, which self-cleavage is on record?
Its self-cleavage is 0.08.

With U19C A33G A94G as the variant, how does the self-cleavage read?
Its self-cleavage is 0.92.

With A22G A63G A116G as the variant, how does the self-cleavage read?
Its self-cleavage is 0.16.

With A52U U72G G83C as the variant, how does the self-cleavage read?
The self-cleavage was 0.35.

With U39A A94G A126G as the variant, how does the self-cleavage read?
The self-cleavage was 1.86.

Which self-cleavage does the source give for U39C A66G G74U here?
Its self-cleavage is 0.21.

Which self-cleavage does the source give for A55G A62G A78G here?
Its self-cleavage is 0.32.

For A55G A60G A135U, which self-cleavage is on record?
The self-cleavage was 0.42.

Which self-cleavage does the source give for A30U A36G U38C A56G U100C here?
Its self-cleavage is 1.48.

Which self-cleavage does the source give for A22U G29U A95G here?
The self-cleavage was 2.07.

Which self-cleavage does the source give for A13G A59G A116G U133C here?
Its self-cleavage is 0.42.

With A90G C107U A110U A116G A118C A126G A135G as the variant, how does the self-cleavage read?
The self-cleavage was 0.

Which self-cleavage does the source give for U9C A24G A33G C77A here?
Its self-cleavage is 0.54.

Which self-cleavage does the source give for U38C A64G A110G U122A here?
The self-cleavage was 0.1.

For U43C A67G C121U, which self-cleavage is on record?
The self-cleavage was 2.09.

Which self-cleavage does the source give for C17U A91G U103C A118G here?
Its self-cleavage is 0.05.

With A18G A94G A96G as the variant, how does the self-cleavage read?
Its self-cleavage is 1.37.

Which self-cleavage does the source give for U87C U102C A114G here?
The self-cleavage was 0.7.

Which self-cleavage does the source give for U12C G14U A78G U108C here?
The self-cleavage was 0.1.

With U38C U49C A126G A135U as the variant, how does the self-cleavage read?
Its self-cleavage is 1.07.

For A90C U102C U103C, which self-cleavage is on record?
Its self-cleavage is 0.19.

Which self-cleavage does the source give for U38C A62G G74U U131C here?
The self-cleavage was 0.12.

With G44U G104A U124C as the variant, how does the self-cleavage read?
The self-cleavage was 0.02.

For A36U U37A A67G U133C, which self-cleavage is on record?
The self-cleavage was 1.4.

Which self-cleavage does the source give for A24C A60U A69G A140G here?
The self-cleavage was 1.92.

With A11G U37G U43C U87C A118G U127G as the variant, how does the self-cleavage read?
The self-cleavage was 1.36.

For A95G A96G U100C U122C U124A, which self-cleavage is on record?
Its self-cleavage is 1.26.

Which self-cleavage does the source give for U70C A78G C113U here?
The self-cleavage was 0.01.

Which self-cleavage does the source give for A62G A82G A117G here?
The self-cleavage was 0.3.

For G29U A33G U49C A90G, which self-cleavage is on record?
Its self-cleavage is 0.91.

For A5U U108C A125G U132C, which self-cleavage is on record?
The self-cleavage was 0.01.

Which self-cleavage does the source give for A18G U39C A51U A64G A116G here?
Its self-cleavage is 1.55.

For U39C A51G A60G, which self-cleavage is on record?
Its self-cleavage is 0.66.

For A24C U39A A118G, which self-cleavage is on record?
The self-cleavage was 1.75.

With A22G A51G A62G A89U A134G as the variant, how does the self-cleavage read?
The self-cleavage was 0.52.

For A22G U87A A126G A129G, which self-cleavage is on record?
Its self-cleavage is 0.42.

For G15A A33G A51G, which self-cleavage is on record?
The self-cleavage was 0.51.

For A5G U43C U49C A68G G75U, which self-cleavage is on record?
Its self-cleavage is 0.21.

For A62U A89G A111G U127C, which self-cleavage is on record?
Its self-cleavage is 0.01.

Which self-cleavage does the source give for U9C A82G C107U U120C here?
Its self-cleavage is 0.01.

With U9A A51G U122A as the variant, how does the self-cleavage read?
Its self-cleavage is 0.81.

With A18G A23G A27G U37A U72C as the variant, how does the self-cleavage read?
The self-cleavage was 0.48.

For A54G U102C G104U, which self-cleavage is on record?
Its self-cleavage is 0.06.

For U19C C35U G65U A92U U103C, which self-cleavage is on record?
Its self-cleavage is 0.18.

With A60G A64G A96G A110G U132C as the variant, how does the self-cleavage read?
The self-cleavage was 0.2.

For A33G A62C U124C U131C, which self-cleavage is on record?
The self-cleavage was 0.29.

With A11U A67G A92G U102C as the variant, how does the self-cleavage read?
Its self-cleavage is 0.57.

Which self-cleavage does the source give for A24C U37C U122G here?
Its self-cleavage is 2.45.

For A11U A24G U103C A125G, which self-cleavage is on record?
Its self-cleavage is 0.12.

Which self-cleavage does the source give for A24G U38C A47G A56G here?
Its self-cleavage is 0.83.

Which self-cleavage does the source give for U39C A78U U87C U102G here?
The self-cleavage was 0.03.

For G14A A62C U108C, which self-cleavage is on record?
Its self-cleavage is 0.02.

With A22G A36G A52G A110U as the variant, how does the self-cleavage read?
Its self-cleavage is 0.8.

Which self-cleavage does the source give for A23G U43A U108A here?
Its self-cleavage is 0.02.

For A18G C76U A95G U103C, which self-cleavage is on record?
The self-cleavage was 0.02.

For A69G A94G U102A A111G, which self-cleavage is on record?
Its self-cleavage is 0.03.

With U57C U87C C101U U103G as the variant, how does the self-cleavage read?
Its self-cleavage is 0.01.

Which self-cleavage does the source give for U3C A4G U127A here?
Its self-cleavage is 0.73.

For A47G A92G U103C, which self-cleavage is on record?
Its self-cleavage is 0.18.

Which self-cleavage does the source give for A30G U38C A55G A140U here?
The self-cleavage was 0.8.

For A62G A64G A68G A86G U127C U130C G137A, which self-cleavage is on record?
Its self-cleavage is 0.49.

With A5G A11G U38C as the variant, how does the self-cleavage read?
The self-cleavage was 0.98.

With A5U A18G A24G U39C G44A A92G U102C as the variant, how does the self-cleavage read?
Its self-cleavage is 2.27.

Which self-cleavage does the source give for U2C A4G U124C here?
Its self-cleavage is 0.31.

With A30U U57A A62G A116U A129G U130C U133C as the variant, how does the self-cleavage read?
The self-cleavage was 0.24.

With G75A A82G U120C as the variant, how does the self-cleavage read?
The self-cleavage was 0.1.

Which self-cleavage does the source give for A24U A67G A91G here?
The self-cleavage was 1.23.

Which self-cleavage does the source give for A11G A52G A94G U97C here?
Its self-cleavage is 0.17.

For A51G A91U U127A, which self-cleavage is on record?
The self-cleavage was 2.96.
